Where two headings read alike, the source gives them in different places.
Columns and labels:
[1] = test system: murine 2-5A-dependent RNase; test: UV covalent crosslinking of 32P-2-5A probe in presence of unlabeled oligonucleotide competitors; format: binding; conditions: probe 2.4 nM; both truncated recombinant (ZB1) and naturally occurring L cell protein
Experimental: FIG. 2A is a specific affinity of truncated murine 2-5A-dependent RNase for 2-5A. UV covalent crosslinking of the ^32 P-2-5A probe (lanes 1-7) to protein is performed after translation reactions in wheat germ extract (5 μl) with murine 2-5A-dependent RNase mRNA (from clone ZB1) (lanes 1-3) or without added RNA (lane 4) or in extract of interferon treated mouse L cells (100 μg of protein) (lanes 5-7). Reactions are without added competitor (lanes 1, 4, and 5) or in the presence of either trimer core. […] Lanes 8 and 9 are produced by incubating the wheat germ extract with ^35 S-methionine in the absence or presence of 2-5A-dependent RNase mRNA, respectively.
Autoradiograms of the dried SDS/10% polyacrylamide gels are shown. Concentrations of the oligonucleotide competitors are indicated. I is inosine.
The synthesis of the 2-5A probe, p(A2'p)2 (br^8 A2'p)2 A[32P]Cp, and its crosslinking to 2-5A-dependent RNase is performed exactly as described. See Nolan-Sorden, N. L. et al., Anal. Biochem., 184:298-304 (1990). Briefly, the 2-5A probe, about 0.7 to 2.5 nM at […], is incubated for about one hour on ice with cell extract prepared as described, Silverman, R. H. and Krause, D., I.R.L. Press, Oxford. England, pp. 149-193 (1987), in the absence or presence of unlabeled oligonucleotide competitors. […]

[2] = test system: human 2-5A-dependent RNase; conditions: purified enzyme, poly(rU) substrate
[3] = test system: 2-5A-dependent RNase; conditions: relative to the 5'-phosphorylated 2-5A species; cited from earlier work

| concentration of competitor that prevents 2-5A probe binding [1] | activation of 2-5A-dependent RNase (in words) ([2]; listed as ppp5'A2'p5'A) | activation of 2-5A-dependent RNase (in words) [2] | Substance | loss/decrease of 2-5A-dependent RNase binding [3] |
| --- | --- | --- | --- | --- |
| > 10 µM | lack of activation ability | – | p3 A2'pA | – |
| – | – | without activity | pppA(3'p5'A)2 | 10,000 fold |

Source: patent publication US5877019A, “Animal 2-5A-dependent RNases and encoding sequences therefor” (Cleveland Clinic Foundation, priority 1996, dated 1999)
